Assay results taken from PubChem BioAssay AID886 (National Center for Advancing Translational Sciences (NCATS), 2007).
Several values for one entry are separate records, joined by “and”; a condition that tells them apart may be missing. Equal values may be shown once. In all, about 73,000 compounds went through this assay and about 2,500 (3.4%) were called active. Inconclusive results, whose numbers are uncertain, are shown with a selection of clear calls. Calls follow the shape of the dose curve; as a rule, active = well fitted inhibition curve with a large enough effect; inconclusive = small, poorly fitted or top-dose-only effect; inactive = no such curve, though single readings can be large or run the other way. Potencies of inconclusive entries are doubtful fits and often do not repeat.
% is scaled to controls: 0 for no effect and ±100 for the full control effect; potency is read from the fitted curve at half-maximal effect; tags tell the direction and shape of the fitted curve.
Also: nearly all actives have a fitted effect of over 60% in size.

The compounds below were run against 3-hydroxyacyl-CoA dehydrogenase type-2 (Homo sapiens) (UniProt Q99714) (assay: qHTS Assay for Inhibitors of HADH2 (Hydroxyacyl-Coenzyme A Dehydrogenase, Type II)). Settings: recombinant HADH2, NADH fluorescence, beta-hydroxybutyryl-CoA; activity change, negative = inhibition: at 57.1 µM (top of the series).
Sequence of UniProt Q99714 (Q99714 whole entry, looked up): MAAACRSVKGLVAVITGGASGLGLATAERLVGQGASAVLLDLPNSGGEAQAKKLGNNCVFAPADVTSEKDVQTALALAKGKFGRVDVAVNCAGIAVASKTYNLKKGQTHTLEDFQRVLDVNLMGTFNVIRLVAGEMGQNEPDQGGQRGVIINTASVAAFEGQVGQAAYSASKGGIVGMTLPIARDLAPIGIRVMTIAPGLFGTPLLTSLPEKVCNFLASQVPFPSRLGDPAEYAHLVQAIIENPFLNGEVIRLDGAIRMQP
Sequence of UniProt Q99714 (Q99714 whole entry, looked up): as above
Outline: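 His-tagged recombinant enzyme from E. coli, 20 nM, preincubated 15 min RT with compound; reaction started with 1 mM NAD+ and 90 uM beta-hydroxybutyryl-CoA in 100 mM Tris-HCl pH 9.0. NADH fluorescence (ex 360/em 450) read over 4 min; last-minus-first difference.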
With `Cc1nc2cc(CO)ccc2s1` the Potency was inconclusive: 39.8 µM [inhibitor, single point].
In the case of `CC1=C/C(=C/N(C)c2ccccc2)C(=O)S1`, the Potency is reported as active: 6.31 µM.
For `O=c1c(-c2cccc(F)c2)nc2cncnc2n1C1CC1`, the Potency was “inactive”.
`Cc1ccc(NC(=O)COC(=O)c2ccc3c(c2)NC(=O)C2CCCN32)cc1` (stereo unspecified) was tested, and the Potency was “inactive”.
With `CC(Sc1nnc(N)s1)c1ccccc1Cl` (stereo unspecified) the Potency was inconclusive: 31.6 µM [inhibitor, single point].
For `Nc1c(C(=O)CCC(=O)O)oc2ccc(Cl)cc12`, the Potency was inconclusive: 31.6 µM [inhibitor, single point].
In the case of `CCn1cc(C(=O)N2CCCC2)c(=O)c2cc(S(=O)(=O)N3CCOCC3)ccc21`, the Potency is reported as “inactive”.
`CCCOC(=O)Cc1c(O)c2ccccc2[nH]c1=O` was tested, and the Potency was inconclusive: 39.8 µM [inhibitor, single point].
`CC(C)[C@H]1C(=O)C(C(N)=O)=C(O)[C@]2(O)C(=O)C3=C(O)c4c(O)ccc(N(C)C)c4C[C@H]3C[C@@H]12` was tested, and the Potency was inconclusive: 31.6 µM [inhibitor, single point].
With `CC(C)(C(=O)O)c1ccc(C(O)CCCN2CCC(C(O)(c3ccccc3)c3ccccc3)CC2)cc1` (stereo unspecified) the Potency was inconclusive: 3.16 µM [inhibitor, single point].
In the case of `CN(C)c1ncc2nc(-c3ccccc3)c(=O)n(C3CC3)c2n1`, the Potency is reported as inconclusive: 10 µM [inhibitor, partial curve].
For `c1ccc(CCCNc2nnnc3ccccc23)cc1`, the activity change, negative = inhibition was inactive: 6.74% [at 11.4 µM].
`COC(=O)C1(C(=O)OC)Sc2ccccc2C1=O` was tested, and the Potency was inconclusive: 3.98 µM [inhibitor, full curve].
For `CCOC(=O)Cn1c(CN2CCN(c3cccc(Cl)c3)CC2)nc2c1c(=O)[nH]c(=O)n2C`, the Potency was inconclusive: 39.8 µM [inhibitor, single point].
For `CC1(C)C2CCC1(CS(=O)(=O)N1CCCc3ccccc31)C(=O)C2` (stereo unspecified), the Potency was inconclusive: 0.398 µM [inhibitor, single point].
In the case of `O=C(c1ccco1)N1CCN(C(=O)c2snc3ccc(Cl)cc23)CC1`, the Potency is reported as inconclusive: 39.8 µM [inhibitor, single point].
`O=C(NCS(=O)(=O)c1ccccc1)c1ccccc1` was tested, and the Potency was “inactive”.
With `c1cncc(CNc2nc(-c3ccoc3)nc3ccccc23)c1` the Potency was active: 15.8 µM.
In the case of `Cc1sc2nc3c4ccccc4c(NCc4ccco4)nn3c(=O)c2c1C`, the Potency is reported as inconclusive: 39.8 µM [inhibitor, single point].
In the case of `O=C1c2ccccc2C(=O)N1C1(C(=O)NC2(C(=O)O)CCCC2)CCCC1`, the activity change, negative = inhibition is reported as inactive: 5.33% [at 11.4 µM].
For `CC(CO)(CO)N=Cc1cc(I)cc(I)c1O`, the Potency was inconclusive: 3.98 µM [inhibitor, single point].
With `COCCCNc1nc2ccccc2nc1NS(=O)(=O)c1cccs1` the Potency was “inactive”.
With `CCOc1ccc(N2C(=O)CC(N3CCN(c4ccccc4F)CC3)C2=O)cc1` (stereo unspecified) the Potency was inconclusive: 39.8 µM [inhibitor, single point].
For `CCOc1ccc(-c2nc(C#N)c(N3CCOCC3)o2)cc1`, the Potency was inconclusive: 3.98 µM [inhibitor, single point].
`Cc1ccc2cc(CN(Cc3ccco3)C(=O)c3cccs3)c(=O)[nH]c2c1` was tested, and the Potency was inconclusive: 31.6 µM [inhibitor, single point].
In the case of `COc1ccc(CNC(=O)c2cc(-c3ccc(OC)c(OC)c3)on2)cc1`, the Potency is reported as “inactive”.
For `COc1cc(/C=N/NC(=O)c2cc(-c3ccccc3)n[nH]2)ccc1O`, the Potency was inconclusive: 10 µM [inhibitor, partial curve].
For `O=C(/C=C/c1ccc(O)c(O)c1)O[C@@H](C(=O)O)[C@@H](OC(=O)/C=C/c1ccc(O)c(O)c1)C(=O)O`, the Potency was active: 0.501 µM.
For `O=C(Nc1cnn(Cc2ccc(Cl)cc2)c1)c1cnccn1`, the Potency was “inactive”.
`CCCn1c(-c2cccs2)nc2ccccc21` was tested, and the Potency was inconclusive: 39.8 µM [inhibitor, single point].
In the case of `O=C(O)CCc1ccc(-c2ccc(Br)cc2)n1Cc1ccco1`, the Potency is reported as inconclusive: 31.6 µM [inhibitor, single point].
With `COCC#Cc1ccc(C2NC(C(=O)O)CCC2C)cc1` (stereo unspecified) the activity change, negative = inhibition was inactive: -5.26% [at 11.4 µM].
In the case of `CC(=O)Nc1ccccc1`, the Potency is reported as active: 31.6 µM.
For `COc1ccccc1-c1nccc(N2CCN(C)CC2)n1`, the Potency was “inactive”.
With `Cc1cnc(CNc2ncncc2-c2ccoc2)cn1` the Potency was inconclusive: 31.6 µM [inhibitor, single point].
For `Cn1c(SCc2ccc(Br)cc2)nnc1-c1ccncc1`, the Potency was “inactive”.
`O=C(c1ccccc1)N1CCCCC(Sc2nnc3ccccn23)C1=O` (stereo unspecified) was tested, and the Potency was “inactive”.
In the case of `C=CCOc1ccc(/C=N/n2cncn2)cc1OC`, the Potency is reported as inconclusive: 31.6 µM [inhibitor, single point].
For `COC(=O)CSc1nsc(SCC(=O)OC)c1C#N`, the Potency was inconclusive: 25.1 µM [inhibitor, partial curve].
For `O=C(CSc1ccc2nnc(-c3ccc(F)cc3)n2n1)NCC1CCCO1` (stereo unspecified), the Potency was inconclusive: 31.6 µM [inhibitor, single point].
For `COc1ccc(OC)c(C2CC(=O)N3CN(c4ccc(C)c(Cl)c4)CSC3=C2C#N)c1` (stereo unspecified), the Potency was inconclusive: 1.58 µM [inhibitor, full curve].
`CCOC(=O)C(NC(=O)c1cccnc1)(Nc1cccc(C)n1)C(F)(F)F` (stereo unspecified) was tested, and the Potency was inconclusive: 6.31 µM [inhibitor, single point].
`COc1ccc(C2CC(c3cccs3)n3nc(N)nc3N2)cc1` (stereo unspecified) was tested, and the Potency was inconclusive: 3.98 µM [inhibitor, single point].
`CC1=CC(C)(C)Nc2ccc(C)cc21` was tested, and the Potency was active: 31.6 µM.
With `S=C(c1ccc(N2CCCC2)cc1)N1CCCCC1` the Potency was “inactive”.
For `COCCN1CCN(c2c(C)c(C)nc3cc(-c4cccc(OC)c4)nn23)CC1`, the Potency was “inactive”.
With `Cc1ccc2c(c1)c1c3n2CCCNC3CCC1` (stereo unspecified) the Potency was inconclusive: 39.8 µM [inhibitor, single point].
In the case of `COc1ccc(CNC(=O)c2cnc3scc(C)n3c2=O)cc1`, the Potency is reported as inconclusive: 31.6 µM [inhibitor, single point].
With `CN(C)c1nc(-c2ccccc2)c2cnn(Cc3ccccc3)c2n1` the Potency was active: 31.6 µM.
With `Cc1cccc(C2Nc3ccccc3C(=O)N2c2ccccc2)n1` (stereo unspecified) the Potency was active: 15.8 µM.
With `c1ccc2c(N3CCCCC3)nc(N3CCCC3)nc2c1` the Potency was “inactive”.
With `C=Cc1c(C)c2cc3[nH]c(cc4nc(cc5nc(cc1[nH]2)C(C)=C5CCC(=O)O)C(CCC(=O)O)=C4C)c(C)c3C=C` the Potency was active: 12.6 µM.
For `Nc1nc(Cl)nc2c1ncn2[C@@H]1O[C@@H](CO)[C@@H](O)[C@H]1O`, the Potency was “inactive”.
For `CC(=O)c1ccc(N2CCN(C(=O)COc3ccc(F)cc3)CC2)c(F)c1`, the Potency was “inactive”.
For `CCN(CC)CCCN1C(=O)c2oc3ccccc3c(=O)c2C1c1cccnc1` (stereo unspecified), the Potency was inconclusive: 20 µM [inhibitor, partial curve].
`CC(=O)C1=C(O)C=C(c2ccco2)CC1c1ccco1` (stereo unspecified) was tested, and the Potency was inconclusive: 15.8 µM [inhibitor, partial curve].
For `COc1ccc(-c2cc(C(F)(F)F)nc(SCC(=O)Nc3cc(C)on3)n2)cc1`, the Potency was inconclusive: 10 µM [inhibitor, partial curve].
With `CC(C)(C)c1ccc(C(=O)N2CCC(C(=O)NCc3ccncc3)CC2)cc1` the Potency was “inactive”.
With `Cc1cccnc1Nc1nc(-c2ccc(O)cc2O)cs1` the Potency was inconclusive: 25.1 µM [inhibitor, single point].
`COc1ccc(C(=O)n2nc(-c3ccccc3)nc2N)cc1OC` was tested, and the Potency was inconclusive: 39.8 µM [inhibitor, single point].
`O=C1Nc2ccccc2C1=Nc1ccc(-c2nnc3n2CCCCC3)cc1` was tested, and the Potency was “inactive”.
With `O=c1ccc2c(o1)/C(=C/C=C(Cl)Cl)CCC2` the Potency was inconclusive: 2.51 µM [inhibitor, partial curve].
`Cn1c(-c2ccc(CN3CCCCC3)o2)nc2ccccc21` was tested, and the Potency was “inactive”.
With `O=c1c2ccccc2nc2ccc(NCc3ccco3)nn12` the Potency was inconclusive: 20 µM [inhibitor, single point].
For `Cc1nnc2sc(-c3cccc4ccccc34)nn12`, the Potency was inconclusive: 25.1 µM [inhibitor, single point].
In the case of `CC1(C)CCCN(C(=O)c2coc(=O)c(Br)c2)C1`, the Potency is reported as active: 12.6 µM.
With `N=c1c(S(=O)(=O)c2ccccc2)cc2c(=O)n3ccccc3nc2n1Cc1ccco1` the Potency was “inactive”.
In the case of `C(=N\n1cnnc1SCc1ccccc1)/c1ccco1`, the Potency is reported as inconclusive: 15.8 µM [inhibitor, partial curve].
`O=S(=O)(Cc1ccccc1)N1CCc2ccccc21` was tested, and the Potency was “inactive”.
`CCOCCOC(=O)C1=C(C)Nc2ccc(C)cc2S1` was tested, and the Potency was inconclusive: 31.6 µM [inhibitor, single point].
For `C=CCn1c(CCC(=O)O)ccc1-c1ccccc1`, the Potency was inconclusive: 25.1 µM [inhibitor, single point].
With `COc1cc2c(=O)nc3n(c2cc1OC)C(c1ccccc1)N=C(N)N3` (stereo unspecified) the Potency was inconclusive: 25.1 µM [inhibitor, partial curve].
In the case of `Nc1nc2ccc(OC(F)(F)F)cc2s1`, the Potency is reported as inconclusive: 25.1 µM [inhibitor, partial curve, poor fit].
In the case of `Oc1cc(O)c2c(c1)O[C@H](c1ccc(O)c(O)c1)[C@H](O)C2`, the Potency is reported as inconclusive: 1.58 µM [inhibitor, full curve] and inconclusive: 1 µM [inhibitor, full curve].
For `COc1ccc(C(=O)CSc2nc(SC)ns2)cc1OC`, the Potency was inconclusive: 15.8 µM [inhibitor, partial curve].
For `Cc1cc(C)nc(N2CCCC(C(=O)NCc3cccc(C(F)(F)F)c3)C2)n1` (stereo unspecified), the Potency was “inactive”.
